This series deals with the molecule itself. In words: negative-stain transmission electron microscopy.

B1: mutant desmin E245D (natural protein)
chain: not shown
On to B1, for which the binding result is given as “binds”.

Source of the values: PMC3681697 (Molecular Biology of the Cell, 2013).
